Test results taken from the supplement of paper PMC11417369.
The list shows a part of the results.

These sequences were tested on PF3D7_0420300 AP2 domain 1 (GST-tagged) (assay: gcPBM binding intensity (ln(normalized median fluorescence intensity)); higher = stronger DNA binding).
In short: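 Binding intensity values are the highest Masliner-normalised natural-log median intensity among replicate spots of either probe orientation. The binding step lasted 1 h in 1× PBS with 1% milk, 0.2 mg/ml BSA, 0.5% salmon testes DNA and 0.03% Triton X-100, using GST-tagged P. falciparum DNA-binding domains expressed in E. coli on an Agilent 4 × 180k array of primer-extended double-stranded 36-bp intergenic genomic probes plus negative controls. Alexa488 anti-GST antibody and a 488 nm scan detected bound protein.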

| Sequence | gcPBM binding intensity (ln) |
| --- | --- |
| GTAGTTATATTAAGGGTGCTTAATTAGATTAAACAA | 9 |
| AGAATAAATAAATATTGTACATATAAAATATATATA [XGTACX_site896] | 9.14 |
| TTCAAATTTCCACATACACACCTTGTAGATATATAT [CACACA_site7984] | 9.48 |
| AAAAACTTAATATTGACACACATTTTTAAGAATAAT [CACACA_site4291] | 9.26 |
| ATTGAACACATCTATGCATGCACGGAAAAAAGTACA [TGCATGCA_site401] | 9.41 |
| TTTTTTAAAATATGGACACACATATATATATCTGTA [CACACA_site5535] | 9.1 |
| TATGCAATATATTATATTCTGTAAATATTATATATT [TGCATGCA_negctrl_site67] | 9.1 |
| TATAAATATTTTATTGTACACACTTTTTATGAATGA [CACACA_site3136] | 9.27 |
| TAATATTTCATTAGGTGTACACTACATAGTAGTAGA [XGTACX_site366] | 9.02 |
| GTTTGTTTGTTTGTTCGTACATATATAAAATAAAAA [XGTACX_site4731] | 9.35 |
| AGACCTATGATATATACACACATATATTTATTTATA [CACACA_site6630] | 9.59 |
| ATTATAACACTTATTTCATTTGTATGCCCTTTAAAA [CACACA_negctrl_site955] | 9.39 |
| TATATAACTAAAATAACACACATATATAAAAATATA [CACACA_site7416] | 9.61 |
| TGGATACACAAAAATTAAAAAAATAAACAAACAAAT [GTGCAC_negctrl_site105] | 9.73 |
| AAAAAATAGTGGTATGCATGTCCCTTGTATTTTCTT [TGCATGCA_site587] | 9.44 |
| TACTTTTATATGAATACACACAGGAATATAAATATG [CACACA_site7647] | 9.45 |
| TCCTTACATTTTAAAACACACAAAAATTAATTGTTA [CACACA_site2313] | 9.16 |
| AAAATACCCATTTTAGTACACACTTAAAAAATTATT [CACACA_site8966] | 9.31 |
| TATAAAAAATTAAAATTTTTCTTATTTTTTTTAGAT [TGCATGCA_negctrl_site125] | 8.72 |
| ACCACCAGGAACAAAGCACATTAGGAAAAATAAAAC [XGTACX_negctrl_site228] | 9.81 |
| TTGAATAAATTGGAATAAATATAATAAAATAAGGAA [XGTACX_negctrl_site302] | 9.36 |
| TACCAATAAATGAAGGTGCGTGCTTGCCTTTGCTAT | 9.19 |
| CATACATATATTATTGCACACATATAAAATACCCCC [CACACA_site9292] | 10.3 |

| Sequence | gcPBM binding intensity (ln) |
| --- | --- |
| TAGGAATTTAATAAATGTACATATACATAATATATA [XGTACX_site3672] | 9.11 |
| TTGTATAGTCTGATATGTACATATATATATATATAA [XGTACX_site4307] | 9.18 |
| TTTGGGTATACACATACATGCATGTCCTTATATATA [TGCATGCA_site84] | 9.39 |
| ATATCATAAATTTATGCATGTTCTTTCTTCAACTCT [TGCATGCA_site992] | 9.3 |
| ATTATTTATTTATTTTTTTTTTTTTTCTCTTTTCCT [GTGCAC_negctrl_site656] | 9.11 |
| AGTAGGCATATTGGTTGTACAAAAAAATTATGCACC [XGTACX_site8925] | 9.27 |
| TTTTTTTTTTCTCTCGCACACATTTTTTAAAATGAG [CACACA_site2607] | 9.38 |
| ATATTTATATAGATGTGTACATAAATATAATAACAT [XGTACX_site1681] | 9.4 |
| ATATATATATATGTTTATTTATTTGAACGATTGTGG [CACACA_negctrl_site828] | 9.11 |
| GACTCTTAAAAAATTTGTACCCACATAAATAATATA [XGTACX_site4313] | 9.08 |
| TATATATCCTCTGAATGTACTTGTTTAATAATGTAG [XGTACX_site4332] | 9.18 |
| TGTGTAATATTCTGTTGTACATAACTCATAAATAAA [XGTACX_site5308] | 9.08 |
| ATAATATAATATATATGTACACATCCTTTTTGTGTA [XGTACX_site2879] | 9.28 |
| TAAAAGTAAAAAGGTAGTACCTAAATAATATATATA [XGTACX_site8399] | 9.24 |
| ATAAGATAGGCATATACACACATTTATTTACAGATA [CACACA_site5754] | 9.61 |
| GAATAAAAAATTGGCACACATAAATATATGGATATA [CACACA_site3047] | 9.46 |
| TTCAACATATTAAAAAGTACAGAATATAACATTATA [XGTACX_site1361] | 9.29 |
| TATACGTGAATGACAGTGCATTTCAAAAGTATAAAA [GTGCAC_site9887] | 9.16 |
| TATATATATATACCAACACACATACATATATATATA [CACACA_site8530] | 9.68 |
| TAAAAAATAAAAATTGCACACTAAAAAATTACGCAC [CACACA_site9129] | 9.48 |
| AAGTATAAATTAAAATGTACTTATAAAAAAAAAGAA [XGTACX_site7028] | 9.35 |
| TGTCACATAATTTATGCACACAATGATTATGCTTAA [CACACA_site2358] | 9.28 |
| TATGTATGTATGTATGCATGTGTAACACCTAAATAT [TGCATGCA_site361] | 9.43 |

| Sequence | gcPBM binding intensity (ln) |
| --- | --- |
| ACATATATTGTACATACACACCTATATAAATATCCT [CACACA_site7503] | 9.57 |
| CCATATTTCATTAATGAACACACAAAGAGGTATATA [CACACA_site8431] | 9.4 |
| AAAAATAAAATATATACACACATATATATATATATA [CACACA_site2943] | 9.31 |
| TTTTAAATTGGAGTGGGCAGATTGATATTATTCTTC [GTGCAC_negctrl_site191] | 9.14 |
| ACATATATATATATGTGTACATATTTATACAACAAT [XGTACX_site6660] | 9.44 |
| TTTTTAATTTTGTGGGTGCTTTCGTGTTATTATATA | 9.66 |
| TATTATAATAAACCTATACACACATAAATAAATAAA [GTGCAC_negctrl_site627] | 9.73 |
| AATGTCAGTATGCGAGGTACACGTATAAAAATTACA [XGTACX_site4109] | 9.34 |
| AGGAAATTTGTTATTGCACACAAATTTTTCTTTTTT [CACACA_site8732] | 9.31 |
| TACATAAATTAAAACACACACACACTAGAAAAAAAA [CACACA_site5278] | 10.1 |
| TTTTACTAAATATATACACACATTATACAGATATAT [CACACA_site5765] | 9.56 |
| TATCCTAATGCTACCACACACACAAAAACAAATAAT [CACACA_site2609] | 9.9 |
| AATATTTATGGGTGCACACAAACATACATATATATA [CACACA_site3395] | 9.55 |
| CCTTACTTCTTATAAAGTACCCAATGATATACATTA [XGTACX_site1554] | 9.05 |
| ATGTTGAAAGGAAAAAATAATAAAATCGATATATTA [CACACA_negctrl_site549] | 9.18 |
| AAAAAAAAGAATAGAGCATGCAAAATATATGAAATA [TGCATGCA_site933] | 9.62 |
| TTTTAATGTATATTTTGTACGTATTATTAATATTCG [XGTACX_site8453] | 9.14 |
| ATCTCTACAAAGTGCACACACGTAAAAACATATATA [CACACA_site6046] | 9.58 |
| ATTTTCCTTTAATTATGTACTTATGTAATAATAATG [XGTACX_site2612] | 9.28 |
| GTATCATAAAAGTATACACACATACATACATATGTA [CACACA_site5456] | 9.49 |
| GCACACATATAATTAAACATATATTTGTATTATTTT [GTGCAC_negctrl_site327] | 9.43 |
| TGTATGATTATGTTGTGTACGTAAAATATGAAAAAT [XGTACX_site1720] | 9.45 |
| ATTAGTGACATTATTACACACAAAAGAAAACAGAAA [CACACA_site3984] | 9.85 |

| Sequence | gcPBM binding intensity (ln) |
| --- | --- |
| TGAATCTATATACAGGTGCGTAAAAAATAACTTATA | 9.1 |
| CAAGAATTAAAATAAAGTACAAAAGTAACAACTTTT [XGTACX_site1474] | 9.17 |
| AAAAAAAAGGAAAAGGGTACAAAACCATACTTACAT [XGTACX_site4783] | 9.43 |
| TAAAGATATAAATGCACACGTATTAAAAAAAAAATA [CACACA_site952] | 9.46 |
| TTATCATTACATGAGTGTACATTATTATATTTTTTT [XGTACX_site7845] | 9.44 |
| ATATATTTTTTTTTTTGTACGTATATTTATATAATT [XGTACX_site8719] | 9.55 |
| GAAAGAAAGAAAGAAAGTACATATAAAAATATACAT [XGTACX_site7299] | 9.11 |
| ATGATAGTAATTAATAGTACTTTTTTTGATACAAAA [XGTACX_site4288] | 8.75 |
| TCGTGTTTTAAAAAAATGAAGAAAAGTAAAAAAAAA [XGTACX_negctrl_site23] | 8.98 |
| TAATATGAATATATATGTACATACAATTTGTTATAT [XGTACX_site5815] | 9.25 |
| ATTAAATGTATGACTTGTACATAAAATAAAAAAAAA [XGTACX_site6555] | 9.12 |
| TATATATAATATATATGTACATAATATATTTTATAT [XGTACX_site2909] | 9.07 |
| TAAAACACTCATGGCACACATAAAACATTTTTATGA [CACACA_site3574] | 9.3 |
| AGTATAAGCATTATTGTGCACATAATTATAATTTTT | 9.27 |
| AGTTTAAATTAAATTACACACTACGAATAATATATT [CACACA_site7811] | 9.36 |
| AATAATGAAACAGGAAAAAAATATTGTTAAAATGTA [XGTACX_negctrl_site400] | 9.51 |
| TATATATTAATAAATAGTACCCGTGGAATTTATATT [XGTACX_site5855] | 9.19 |
| GTTGCAATTAACACTAGTACATATAAGTAGTTTATT [XGTACX_site2063] | 9.24 |
| ATTGTTCTCCAAAAGTGTACGTATTATTTTTCTGGA [XGTACX_site1404] | 9.31 |
| TATTAATCTTTTTTTAAACAAAAAATTAAGCAAATT [CACACA_negctrl_site884] | 8.72 |
